Experimental data published in US20250340604A1, “BLOOD-BRAIN BARRIER TRANSLOCATING PEPTIDES AND RELATED MOLECULES AND METHODS OF USE THEREOF” (Enkefalos Biosciences, Inc., priority 2022, published 2025).

B1: GlcCSase-CYC17 fusion cyclotide: CYC17 (SEQ ID NO:72) linked to C-terminal end of glucocerebrosidase (SEQ ID NO:144) via Gly-Ser linker; SEQ ID NO:146 (protein)
chain: ARPCIPKSFGYSSVVCVCNATYCDSFDPPTFPALGTFSRYESTRSGRRMELSMGPIQANHTGTGLLLTLQPEQKFQKVKGFGGAMTDAAALNILALSPPAQNLLLKSYFSEEGIGYNIIRVPMASCDFSIRTYTYADTPDDFQLHNFSLPEEDTKLKIPLIHRALQLAQRPVSLLASPWTSPTWLKTNGAVNGKGSLKGQPGDIYHQTWARYFVKFLDAYAEHKLQFWAVTAENEPSAGLLSGYPFQCLGFTPEHQRDFIARDLGPTLANSTHHNVRLLMLDDQRLLLPHWAKVVLTDPEAAKYVHGIAVHWYLDFLAPAKATLGETHRLFPNTMLFASEACVGSKFWEQSVRLGSWDRGMQYSHSIITNLLYHVVGWTDWNLALNPEGGPNWVRNFVDSPIIVDITKDTFYKQPMFYHLGHFSKFIPEGSQRVGLVASQKNDLDAVALMHPDGSAVVVVLNRSSKDVPLTIKDPAVGFLETISPGYSIHTYLWHRQGSGGGSGGGGSGGGGSLE[about 40 residues left out here]
modifications: Glucocerebrosidase-CYC17 with linker
B2: NGF-cyclotide fusion: CYC17 fused to C-terminal end of human Pro-NGF (SEQ ID NO:147) via flexible linker, V5 and 6-His tags; SEQ ID NO:149 (protein)
chain: PHSESNVPAGHTIPQVHWTKLQHSLDTALRRARSAPAAAIAARVAGQTRNITVDPRLFKKRRLRSPRVLFSTQPPREAADTQDLDFEVGGAAPFNRTHRSKRSSSHPIFHRGEFSVCDSVSVWVGDKTTATDIKGKEVMVLGEVNINNSVFKQYFFETKCRDSNPVDSGCRGIDSKHWNSYCTTTHTFVKALTMDGKQAAWEFIRIDTACVCVLSRKAVRGGGGSGNS[about 40 residues left out here]
modifications: NGF-CYC17 cyclotide fusion

Key:
[1] = molecular target: T1, human transferrin receptor (hTfR) (Homo sapiens, UniProt P02786); assay: ELISA binding of GlcCSase-CYC17 fusion to transferrin receptor; conditions: 125 ng hTfR coated per well, concentrated expression supernatant; FIG. 6B
T1 construct: expressed in transfected cells; host or cells: HEK293F
Experimental: Binding of the GlcCSase-CYC17 fusion cyclotide was assessed by Enzyme-linked immunosorbent assay (ELISA) of hGCSase-HT2 using human transferrin receptor (hTfR) antigen. Duplicate wells of a high binding half area 96-well plate (Corning) were directly coated with 125 ng of hTfR in 50 μL Tris buffered saline plus 0.1% (v/v) Tween 20 (TBST) containing 2% milk powder (or TBST containing 2% milk powder alone as a negative control) at 4° C. overnight. After removal of the supernatants, the wells are blocked with 50 μL of TBST containing 2% milk powder at room temperature for 2 hours. The blocking agent was removed, and 25 μL of filtered, concentrated supernatant from the HEK293F hGCSase-CYC17 fusion expression culture (or 25 μL of filtered, concentrated supernatant from a non-hGCSase expressing HEK293F expression culture as a negative control) plus 25 μL of TBST containing 4% milk powder were added to the appropriate wells and incubated at room temperature for 1 hour. The supernatants were removed, and wells were washed 4 times with TBST. […] 50 μL of tetramethylbenzidine (TMB) substrate was added to each well and incubated at room temperature for 5 minutes, then quenched with 50 μL of 1 N sulfuric acid, and absorbance was read at 450 nm using a SpectraMax absorbance plate reader.

[2] = Glucocerebroside activity assay (SensoLyte Red Glucocerebrosidase Fluorometric Assay Kit); type: biochemical; conditions: 10 μL concentrated HEK293F supernatant, room temperature, 1 hour kinetic; versus negative controls; FIG. 6A
Experimental: A standard glucocerebroside activity assay based on the ability of the GlcCSase-CYC17 fusion cyclotide to react with substrate was performed to assess the functional integrity/activity of the fusion cyclotide. Specifically, the enzymatic activity was assayed using the SensoLyte Red Glucocerebrosidase Fluorometric Assay Kit (AnaSpec) according to the manufacturer's protocol. The assay uses a resorufin-β-glucoside substrate that, upon cleavage of the glycosidic linkage by hGCSase, releases resorufin, which fluoresces at 610 nm upon excitation at 570 nm. The kinetic assay was conducted in triplicate in an opaque 96-well plate at room temperature in a SpectraMax fluorescence plate reader over the course of 1 hour using 10 μL of filtered, concentrated supernatant from the HEK293F hGCSase-CYC17 expression culture, 40 μL of assay buffer, and 50 μL of substrate solution. Positive (GCSase enzyme), inhibitor, vehicle only, and substrate only controls were assayed parallelly in triplicate.

[3] = molecular target: T2, His-tagged human Transferrin receptor (TrFR) (Homo sapiens, UniProt P02786); assay: ELISA binding of NGF-cyclotide fusion to transferrin receptor; conditions: receptor coated at 0.5, 1 or 2 μg/mL, anti-V5-HRP detection; FIG. 7
T2 construct: His tag
Experimental: Purified NGF-cyclotide fusion was contacted with His-tagged human transferrin receptor (TrFR) coated at various concentrations (0.5 μg/mL, 1 μg/mL, or 2 μg/mL) on a microwell plate. Binding of the NGF-cyclotide fusion to the coated human transferrin receptor was assessed by ELISA by anti-V5-HRP detection of the NGF-CYC17 fusion protein.

T2 sequence (P02786 whole entry, the tested form may be a part): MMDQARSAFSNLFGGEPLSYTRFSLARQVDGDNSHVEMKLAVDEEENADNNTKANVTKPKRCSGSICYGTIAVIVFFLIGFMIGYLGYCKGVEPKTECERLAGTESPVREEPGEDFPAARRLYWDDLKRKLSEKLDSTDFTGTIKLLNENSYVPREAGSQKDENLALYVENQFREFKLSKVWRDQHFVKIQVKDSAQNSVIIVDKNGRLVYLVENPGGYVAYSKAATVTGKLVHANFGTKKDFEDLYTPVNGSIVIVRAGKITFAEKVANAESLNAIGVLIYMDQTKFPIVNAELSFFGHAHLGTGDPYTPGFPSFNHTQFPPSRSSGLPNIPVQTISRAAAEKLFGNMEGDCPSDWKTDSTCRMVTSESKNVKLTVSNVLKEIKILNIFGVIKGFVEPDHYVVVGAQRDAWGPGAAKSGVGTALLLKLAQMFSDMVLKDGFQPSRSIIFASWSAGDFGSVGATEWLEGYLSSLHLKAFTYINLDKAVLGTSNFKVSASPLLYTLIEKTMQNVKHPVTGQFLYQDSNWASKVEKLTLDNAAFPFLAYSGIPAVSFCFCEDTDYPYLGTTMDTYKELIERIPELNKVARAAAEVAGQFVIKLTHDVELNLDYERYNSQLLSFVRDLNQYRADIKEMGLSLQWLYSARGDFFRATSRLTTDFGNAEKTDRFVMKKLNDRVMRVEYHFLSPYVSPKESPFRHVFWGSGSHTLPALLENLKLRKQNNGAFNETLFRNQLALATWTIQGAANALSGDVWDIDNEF
T1 sequence (P02786 whole entry, the tested form may be a part): as above

Molecule | binding to hTfR [1] | enzymatic activity (emitted fluorescence) [2] | binding to hTrFR [3]
B1 | bound | time dependent increase of emitted fluoresce | –
B2 | – | – | bound
